# Reference: PubChem BioAssay AID686978 (National Center for Advancing Translational Sciences (NCATS), 2013)
# In all, about 420,000 compounds went through this assay and about 64,000 (15%) were called active. Inconclusive means that the source gave no clear call. Such entries were picked first, then a sample of the others. Calls follow the shape of the dose curve; as a rule, active = well fitted inhibition curve with a large enough effect; inconclusive = small, poorly fitted or top-dose-only effect; inactive = flat fitted curve, though single readings scatter. No potency is given beside an inconclusive call; the fits are too rough.
# Assay: qHTS for Inhibitors of human tyrosyl-DNA phosphodiesterase 1 (TDP1): qHTS in cells in absence of CPT; also: nearly all actives have a fitted effect of over 55% in size
# Settings: DT40 Tdp1-/- hTDP1 cells, no CPT, ATP luminescence, 48 h; activity change, negative = growth inhibition: at 46.2 µM (top of the series) unless noted
# Summary of the method: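 Compound effects on proliferation are scored in DT40 Tdp1-/-;hTDP1 cells in the absence of CPT. ATP levels (CellTiter-Glo luminescence) are recorded after a ≥48 hr, 37 °C incubation.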
# % is scaled to controls: 0 for no effect and ±100 for the full control effect; potency is read from the fitted curve at half-maximal effect; tags tell the direction and shape of the fitted curve.
SMILES,Potency,"activity change, negative = growth inhibition"
COc1ccc(C(C(=O)NC2CCCC2)N(C(=O)c2snc(C(N)=O)c2N)c2cc(C)ccc2OC)cc1OC (stereo unspecified),active: 18.4 µM,–
Cc1sc2ncnc(NCC(c3ccccc3)N(C)C)c2c1C (stereo unspecified),"inconclusive [inhibitor, single point]",–
O=c1c2cc3c(nc2[nH]c(=S)n1-c1ccccc1)CCCC3,–,inactive: 0.783%
O=S(=O)(N/N=C\c1c(F)cccc1Cl)c1ccc(Cl)cc1,"inconclusive [inhibitor, partial curve]",–
COc1ccc(Cl)cc1NC(=O)CN(C)C(=O)CCC(=O)c1cc(C)sc1C,–,inactive: -45.7%
CCOc1ccc(Cl)cc1-c1cc(C(=O)Nc2ccc(OC)nc2)[nH]n1,"inconclusive [inhibitor, single point]",–
COc1ccc(NC(=O)CSc2nnc(-c3cc(C)[nH]n3)n2N)cc1,–,inactive: 26.3%
O=C(O)c1ccccc1-n1c(-c2ccccc2)cc2c1CCCC2=O,–,inactive: -6.22%
Cc1cc2nnc(SCC(=O)NCC3CCCO3)n2c2ccccc12 (stereo unspecified),–,inactive: -11.6%
COc1ccccc1NC(=O)C1CCN(C(=O)c2ccc(C(C)(C)C)cc2)CC1,active: 16.4 µM,–
CC1CCN(Cc2c(C(=O)N/N=C/c3cccc(Cl)c3)nnn2-c2nonc2N)CC1,"inconclusive [inhibitor, single point]",–
COc1ccc2c(c1OC)C(=O)OC2Nc1nc(-c2cc3cc(Br)ccc3oc2=O)cs1 (stereo unspecified),"inconclusive [inhibitor, single point]",–
COc1ccc(C2=NCC(CSc3nnc(-c4ccc5c(c4)OCO5)o3)S2)cc1 (stereo unspecified),"inconclusive [inhibitor, partial curve, poor fit]",–
O=C(OCC(=O)N(Cc1ccccc1)Cc1ccccc1)c1ccccc1O,"inconclusive [inhibitor, single point]",–
CCCNC(=O)CN1C(=O)COc2ccc(S(=O)(=O)N3CC(C)CC(C)C3)cc21 (stereo unspecified),–,inactive: -22.9%
COc1ccccc1N1CCN(C(=O)c2cc(-c3ccc(Br)cc3)on2)CC1,"inconclusive [inhibitor, single point]",–
COc1cc(/C=N/NC(=O)CCn2nnc3ccccc32)ccc1O,–,inactive: -0.487%
COc1cc(C(CC(=O)Nc2ccc(Br)cn2)N2Cc3ccccc3C2=O)cc(OC)c1OC (stereo unspecified),"inconclusive [inhibitor, partial curve, poor fit]",–
Cc1cc(C(=O)OCC(=O)NC2CC2)ccc1[N+](=O)[O-],–,inactive: -5%
CC(C)C(=O)Nc1nc2c(ncn2[C@H]2CC(O)[C@@H](CO)O2)c(=O)[nH]1 (stereo partly specified),active: 12.6 µM,–
CC(=O)N1CCN(Cc2cc(=O)n3cc(Cl)c(C)c(Cl)c3n2)CC1,–,inconclusive: -8.89% [inhibitor]
CCc1ccccc1NC(=O)c1nnn(CC(=O)Nc2cccc(C)c2)c1N,–,inactive: -12.5%
O=C(Nc1cc(=O)[nH]c2ncnn12)c1ccc(Cl)cc1Cl,"inconclusive [inhibitor, single point]",–

SMILES,Potency,"activity change, negative = growth inhibition"
O=C(COC(=O)C1C2CC3OC(=O)C1C3C2)Nc1ccccc1 (stereo unspecified),–,inactive: -8.34%
CCOc1ccc(-c2nc(C)sc2CC(=O)O)cc1,–,inactive: -5.66%
Cc1c(C(=O)Nc2cccc(F)c2)oc2c1-c1nn(Cc3c(F)cccc3Cl)cc1CC2,"inconclusive [inhibitor, single point]",–
COc1ccc(N/C=C2/CCCCC2=O)cc1,"inconclusive [inhibitor, single point]",–
CCOc1cc(N2CCOCC2)c(OCC)cc1NC(=O)c1ccc(S(=O)(=O)N(C)C)cc1,"inconclusive [inhibitor, single point]",–
CCOc1cc(/C=N/NC(=O)CSc2nncn2C)ccc1OC(=O)c1ccc(Cl)cc1,–,inconclusive: -32.1% [inhibitor]
Cc1cc(C)cc(-n2c3nc4ccccc4nc3c3c(=O)n(Cc4ccco4)cnc32)c1,active: 11.6 µM,–
CCOC(=O)c1[nH]c2c(c1-c1ccccc1)C(=O)CC(c1ccc(Cl)cc1)C2 (stereo unspecified),–,inactive: -6.33%
Cc1ccc(S(=O)(=O)N(C)c2ccc(C(=O)NC3CCCCC3)cc2)cc1,"inconclusive [inhibitor, single point]",–
O=C(CC1C(=O)NCCN1C(=O)Nc1ccc(C(F)(F)F)cc1)Nc1ccc(F)cc1 (stereo unspecified),"inconclusive [inhibitor, single point]",–
CC(CO)Nc1nc(SCc2ccccc2)nc2sc3c(c12)CCC3 (stereo unspecified),"inconclusive [inhibitor, single point]",–
CCN(C(=O)COC(=O)C1CCN(S(=O)(=O)c2ccc3c(c2)OCCO3)CC1)C1CCCCC1,–,inactive: -0.948%
C=CCc1c(C)nc(SC)nc1Nc1ccc(C(=O)O)cc1,–,inactive: -11.7%
CCOC(=O)[C@]12CCC=C1N(Cc1ccc(Cl)cc1Cl)C(=O)[C@H](CC(=O)N1CCCCC1)C2,"inconclusive [inhibitor, single point]",–
Cc1nc2ccc(NC(=O)c3ccc(F)c(S(=O)(=O)N4CCOCC4)c3)cc2s1,"inconclusive [inhibitor, partial curve]",–
Cc1ccc(Cn2c(=O)n(CC3CCC(C(=O)N4CCC(C)CC4)CC3)c(=O)c3sccc32)cc1 (stereo unspecified),"inconclusive [inhibitor, single point]",–
CCOC(=O)C1=C(N)Oc2cc(O)ccc2C1c1cccc(Cl)c1 (stereo unspecified),"inconclusive [inhibitor, single point]",–
CCCCCCCCCCCCCCCC(=O)OC/C=C(C)/C=C/C=C(C)/C=C/C1=C(C)CCCC1(C)C,"inconclusive [inhibitor, partial curve]",–
CC(C)NC(=O)C1(C)CN(S(C)(=O)=O)CC(=O)N1CCc1ccc(O)cc1 (stereo unspecified),–,inactive: -1.57%
Cc1ccc(N(Cc2cccs2)C(=O)Nc2cccc(Cl)c2)cc1,"inconclusive [inhibitor, single point]",–
Cc1cc(-c2ccc(C)c(S(=O)(=O)NC(C)Cc3ccco3)c2)on1 (stereo unspecified),–,inactive: -4.97%
Cc1ccc(S(=O)(=O)Oc2cccc(/C=N/n3cnnc3)c2)cc1,active: 8.2 µM,–
COc1ccc(N=c2nc(-c3ccc(C)cc3)n(-c3ccccc3)s2)cc1,active: 3.55 µM,–
